Measured values reported in the supplement of paper PMC4967469.
The IC50 comes from the fitted curve, where viability falls to half of the control; a fit beyond the top or the lowest dose is shown as a bound at that dose. AUC, from the same fit, is the share of area under the viability curve across the 256-fold dose range; values near 1 show little effect. For some assays here: Any top dose called inferred comes from the curve model; the source does not state it.

Experiments:
Assay in all cases: Viability of human cancer cell lines after 72 h of drug (GDSC screen)
MS-275 = compound: Nc1ccccc1NC(=O)c1ccc(CNC(=O)OCc2cccnc2)cc1 [MS-275]; conditions: top dose 5 µM; top dose inferred
Experimental: (§1)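 Human cancer cell lines in 384-well plates, medium with 10% serum, drug for 72 h over a 256-fold dose range (nine 2-fold or five 4-fold steps up to the top dose). Adherent lines were fixed and stained with the nucleic acid dye Syto60, suspension lines read with resazurin; signal relative to control wells, capped at 0 and 100%. One two-parameter sigmoid per drug and line, fitted in a mixed model over all curves with the slope shared within a line.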

KIN001-244 = compound: O=C(NC(COc1ccc2[nH]c(=O)[nH]c2c1)c1ccccc1)c1cccn(Cc2ccc(F)c(F)c2)c1=O [KIN001-244]; conditions: top dose 20 µM; top dose inferred
Experimental: as §1

Trametinib = compound: CC(=O)Nc1cccc(-n2c(=O)n(C3CC3)c(=O)c3c(Nc4ccc(I)cc4F)n(C)c(=O)c(C)c32)c1 [Trametinib]; conditions: top dose 1 µM
Experimental: as §1

AV-951 = compound: COc1cc2nccc(Oc3ccc(NC(=O)Nc4cc(C)on4)c(Cl)c3)c2cc1OC [AV-951]; conditions: top dose 0.128 µM; top dose inferred
Experimental: as §1

I-BET-762 = compound: CCNC(=O)C[C@@H]1N=C(c2ccc(Cl)cc2)c2cc(OC)ccc2-n2c(C)nnc21 [I-BET-762]; conditions: top dose 20 µM; top dose inferred
Experimental: as §1

HG-6-64-1 = compound: CCN1CCN(Cc2ccc(NC(=O)c3ccc(C)c(/C=C/c4cnc5[nH]ccc5c4OC)c3)cc2C(F)(F)F)CC1 [HG-6-64-1]; conditions: top dose 5.12 µM; top dose inferred
Experimental: as §1

PF-4708671 = compound: CCc1cncnc1N1CCN(Cc2nc3ccc(C(F)(F)F)cc3[nH]2)CC1 [PF-4708671]; conditions: top dose 10 µM; top dose inferred
Experimental: as §1

| Cell Line | AUC (MS-275) | IC50 (MS-275) [nM] | AUC (KIN001-244) | IC50 (KIN001-244) [nM] | AUC (Trametinib) | IC50 (Trametinib) [nM] | AUC (AV-951) | IC50 (AV-951) [nM] | AUC (I-BET-762) | IC50 (I-BET-762) [nM] | AUC (HG-6-64-1) | IC50 (HG-6-64-1) [nM] | AUC (PF-4708671) | IC50 (PF-4708671) [nM] |
| --- | --- | --- | --- | --- | --- | --- | --- | --- | --- | --- | --- | --- | --- | --- |
| EW-24 (Ewing sarcoma, semi-adherent) | 0.892 | 4650 | 0.985 | > 20000 | 0.992 | > 1000 | 0.993 | > 128 | 0.993 | > 20000 | 0.871 | 3840 | 0.907 | > 10000 |
| Farage (B-cell lymphoma, suspension) | 0.727 | 1190 | 0.738 | 5110 | 0.992 | > 1000 | 0.988 | > 128 | 0.931 | > 20000 | 0.559 | 449 | 0.992 | > 10000 |
| GB-1 (glioma, adherent) | 0.739 | 1730 | 0.897 | > 20000 | 0.656 | 184 | 0.974 | > 128 | 0.861 | > 20000 | 0.173 | 26.3 | 0.962 | > 10000 |
| GDM-1 (acute myeloid leukaemia, suspension) | 0.567 | 471 | 0.473 | 1060 | 0.945 | > 1000 | 0.542 | 10.3 | 0.518 | 1390 | 0.538 | 405 | 0.937 | > 10000 |
| GI-1 (glioma, adherent) | 0.777 | 1920 | 0.882 | 19700 | 0.912 | > 1000 | 0.987 | > 128 | 0.755 | 6540 | 0.81 | 2570 | 0.971 | > 10000 |
| GI-ME-N (neuroblastoma, adherent) | 0.773 | 2680 | 0.58 | 2240 | 0.341 | 19.2 | 0.921 | > 128 | 0.716 | 6450 | 0.693 | 1370 | 0.911 | > 10000 |
| GOTO (neuroblastoma, adherent) | 0.664 | 958 | 0.821 | 13800 | 0.98 | > 1000 | 0.978 | > 128 | 0.7 | 4980 | 0.928 | > 5120 | 0.98 | > 10000 |
| GR-ST (lymphoblastic leukaemia, suspension) | 0.687 | 1180 | 0.739 | 7060 | 0.952 | > 1000 | 0.976 | > 128 | 0.554 | 1810 | 0.763 | 2220 | 0.869 | > 10000 |
| GRANTA-519 (B-cell lymphoma, suspension) | 0.95 | > 5000 | 0.882 | 17500 | 0.982 | > 1000 | 0.982 | > 128 | 0.96 | > 20000 | 0.894 | 5080 | 0.982 | > 10000 |
| GT3TKB (stomach, adherent) | 0.883 | 4240 | 0.929 | > 20000 | 0.285 | 16.8 | 0.989 | > 128 | 0.984 | > 20000 | 0.738 | 1390 | 0.953 | > 10000 |
| H-EMC-SS (chondrosarcoma, adherent) | 0.97 | > 5000 | 0.844 | > 20000 | 0.158 | < 3.91 | 0.965 | > 128 | 0.959 | > 20000 | 0.737 | 1890 | 0.964 | > 10000 |
| HA7-RCC (kidney, adherent) | 0.823 | 3340 | 0.824 | 13500 | 0.813 | 608 | 0.985 | > 128 | 0.982 | > 20000 | 0.9 | > 5120 | 0.956 | > 10000 |
| HAL-01 (lymphoblastic leukaemia, suspension) | 0.708 | 1110 | 0.897 | 19900 | 0.825 | 510 | 0.985 | > 128 | 0.467 | 1030 | 0.69 | 1010 | 0.921 | > 10000 |
| HC-1 (hairy cell leukaemia, suspension) | 0.589 | 542 | 0.697 | 4370 | 0.881 | 972 | 0.97 | > 128 | 0.744 | 6030 | 0.705 | 1180 | 0.979 | > 10000 |
| HCC1187 (breast, suspension) | 0.894 | > 5000 | 0.898 | > 20000 | 0.978 | > 1000 | 0.985 | > 128 | 0.896 | > 20000 | 0.983 | > 5120 | 0.962 | > 10000 |
| HCC1500 (breast, adherent) | 0.932 | > 5000 | 0.921 | > 20000 | 0.943 | > 1000 | 0.977 | > 128 | 0.812 | 11200 | 0.844 | 3860 | 0.928 | > 10000 |

| Cell Line | AUC (MS-275) | IC50 (MS-275) [nM] | AUC (KIN001-244) | IC50 (KIN001-244) [nM] | AUC (Trametinib) | IC50 (Trametinib) [nM] | AUC (AV-951) | IC50 (AV-951) [nM] | AUC (I-BET-762) | IC50 (I-BET-762) [nM] | AUC (HG-6-64-1) | IC50 (HG-6-64-1) [nM] | AUC (PF-4708671) | IC50 (PF-4708671) [nM] |
| --- | --- | --- | --- | --- | --- | --- | --- | --- | --- | --- | --- | --- | --- | --- |
| HCC2157 (breast, suspension) | 0.732 | 1490 | 0.95 | > 20000 | 0.986 | > 1000 | 0.909 | > 128 | 0.866 | 19400 | 0.867 | 4990 | 0.976 | > 10000 |
| HCC2218 (breast, suspension) | 0.65 | 909 | 0.808 | 13700 | 0.982 | > 1000 | 0.976 | > 128 | 0.885 | > 20000 | 0.952 | > 5120 | 0.948 | > 10000 |
| HD-MY-Z (Hodgkin lymphoma, adherent) | 0.76 | 1780 | 0.768 | 7520 | 0.366 | 26.6 | 0.969 | > 128 | 0.865 | 17800 | 0.917 | > 5120 | 0.967 | > 10000 |
| HDLM-2 (Hodgkin lymphoma, suspension) | 0.731 | 1410 | 0.989 | > 20000 | 0.975 | > 1000 | 0.986 | > 128 | 0.989 | > 20000 | 0.595 | 582 | 0.933 | > 10000 |
| HH (T-cell leukaemia, suspension) | 0.699 | 1380 | 0.443 | 831 | 0.933 | > 1000 | 0.949 | > 128 | 0.452 | 888 | 0.876 | > 5120 | 0.976 | > 10000 |
| HOP-62 (lung adenocarcinoma, adherent) | 0.573 | 496 | 0.874 | 19400 | 0.438 | 42.4 | 0.984 | > 128 | 0.854 | 15700 | 0.547 | 428 | 0.987 | > 10000 |
| HSC-39 (stomach, suspension) | 0.832 | 2610 | 0.991 | > 20000 | 0.755 | 298 | 0.964 | > 128 | 0.974 | > 20000 | 0.836 | 2750 | 0.779 | 3510 |
| HT (B-cell lymphoma, suspension) | 0.794 | 2090 | 0.817 | 10100 | 0.951 | > 1000 | 0.987 | > 128 | 0.621 | 2610 | 0.851 | 3440 | 0.989 | > 10000 |
| HT-144 (melanoma, adherent) | 0.505 | 323 | 0.961 | > 20000 | 0.167 | 5.19 | 0.976 | > 128 | 0.953 | > 20000 | 0.505 | 330 | 0.945 | > 10000 |
| HUTU-80 (digestive system, adherent) | 0.775 | 1640 | 0.895 | 17000 | 0.875 | 699 | 0.991 | > 128 | 0.946 | > 20000 | 0.577 | 499 | 0.947 | > 10000 |
| IMR-5 (neuroblastoma, adherent) | 0.989 | > 5000 | 0.889 | 16500 | 0.946 | > 1000 | 0.985 | > 128 | 0.91 | > 20000 | 0.825 | 2440 | 0.954 | > 10000 |
| IST-MEL1 (melanoma, adherent) | 0.692 | 1210 | 0.886 | > 20000 | 0.48 | 54.4 | 0.972 | > 128 | 0.969 | > 20000 | 0.729 | 1650 | 0.769 | 4500 |
| IST-MES1 (mesothelioma, adherent) | 0.813 | 2740 | 0.911 | > 20000 | 0.985 | > 1000 | 0.98 | > 128 | 0.938 | > 20000 | 0.656 | 873 | 0.902 | > 10000 |
| IST-SL1 (small cell lung carcinoma, semi-adherent) | 0.644 | 795 | 0.818 | 11700 | 0.971 | > 1000 | 0.985 | > 128 | 0.561 | 1850 | 0.872 | 5110 | 0.953 | > 10000 |
| JAR (urogenital system, adherent) | 0.62 | 665 | 0.937 | > 20000 | 0.956 | > 1000 | 0.987 | > 128 | 0.974 | > 20000 | 0.988 | > 5120 | 0.919 | > 10000 |
